Assay results published in article doi:10.64898/2025.12.24.696337 (2025).

B1: Recombinant OspAST1 ([…]) from B. burgdorferi B31 (domain or fragment)
chain: not shown
Kd (221-20): 0.37 nM | Kd (223-5): 0.17 nM | Kd (227-2): 0.48 nM | Kd (LA-2): 64 nM
